Experimental data taken from PubChem BioAssay AID504706 (National Center for Advancing Translational Sciences (NCATS), 2011).
Among all 320,000 compounds or so, about 200 (0.062%) were called active. The inconclusive results got no clear call from the source; some entries with a clear call stand among them for comparison. Calls come from the whole dose curve; as a rule, active = well fitted activation curve with a large enough effect; inconclusive = small, poorly fitted or top-dose-only effect; inactive = no such curve, though single readings can be large or run the other way. No potency is given beside an inconclusive call; the fits are too rough.

Assay: qHTS assay for re-activators of p53 using a Luc reporter; note: nearly all actives have a fitted effect of over 45% in size; for activity change, positive = activation: % of control where 0% means no effect
Details: H1299 p53-A138V BP100-luciferase reporter, luminescence, 24 h; series mostly up to 92.2 µM; activity change, positive = activation: at the top concentration
Summary of the method: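 p53-null H1299 cells stably carrying temperature-sensitive p53-A138V and a BP100-luciferase reporter were pinned with compounds (4-point, 1:5 series) and held 24 hrs at 37 deg C. Luminescence was read 10 min after detection reagent.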
Potency is the fitted concentration of half-maximal effect; tags give direction and shape of the fitted curve.

SMILES | Potency | activity change, positive = activation
CCOc1ccc(N(CC(=O)Nc2ccc(C)c(Cl)c2)S(C)(=O)=O)cc1 | inconclusive [activator, partial curve, poor fit] | –
CC(C)(C)N/N=C1\CC(c2ccccc2)Oc2ccccc21 (stereo not drawn) | – | inactive: 7.65%
Clc1cccc(N=C2NN=C(c3ccc4c(c3)OCCO4)CS2)c1 | inconclusive [activator, partial curve, poor fit] | –
COCCn1c(C)cc(C(=O)Cn2nc(C(=O)O)c3ccccc3c2=O)c1C | – | inactive: -4.92%
Nc1cc(-c2nc3ncccc3o2)ccc1Cl | inconclusive [activator, partial curve, poor fit] | –
N#Cc1ccc(NC(=O)c2cc(-c3cccs3)on2)cc1 | – | inactive: 5.03%
CC(=O)c1ccc(N2CCN(c3ccc(C(F)(F)F)cn3)CC2)cc1 | – | inactive: -13.8%
CC(/C=N/NC(=O)CSc1ccccn1)=C\c1ccc(C(C)C)cc1 | inconclusive [activator, partial curve, poor fit] | –
Clc1ccccc1OCc1nc(-c2ccc(Br)o2)no1 | inconclusive [activator, single point] | –
CC(C)COc1ccc(-c2cc(C(=O)NN)[nH]n2)cc1 | inconclusive [activator, partial curve, poor fit] | –
Cc1ccc(S(=O)(=O)Nc2ccc(-c3nc4ccc(C)cc4s3)cc2)cc1 | inconclusive [activator, full curve, poor fit] | –
Cc1cc(C(=O)Nc2sccc2C(N)=O)c(C)o1 | inconclusive [activator, single point] | –
Cc1ccn2cc(-c3cccc(NC(=O)c4cccs4)c3)nc2c1 | inconclusive [activator, partial curve, poor fit] | –
O=C(CSc1nnc(COc2cccc3cccnc23)o1)c1ccc(F)cc1 | inconclusive [activator, single point] | –
C=CCn1c(=S)[nH]c2nc3c(cc2c1=O)CCCC3 | inconclusive [activator, full curve, poor fit] | –
Cc1ccccc1-c1nc(Cc2ccccc2)no1 | inconclusive [activator, full curve, poor fit] | –
Cc1cc(C)nc(CCNC(=O)c2cc(COc3ccc(F)cc3F)on2)n1 | inconclusive [activator, single point] | –
N#Cc1ccc(-c2ccc(OCC(=O)NN=Cc3ccncc3)cc2)cc1 | – | inactive: -5.04%
COc1ccc(N2CCN(C(=O)CCS(=O)(=O)c3ccc4c(c3)CCN4C(=O)C3CC3)CC2)cc1 | – | inactive: 1.64%
O=C(c1cccc(COc2cccc3ccccc23)c1)N1CCCC1 | inconclusive [activator, partial curve] | –
COc1ccc(CCN2CC(C(=O)N(C)Cc3ccc(C)o3)CCC2=O)cc1 (stereo not drawn) | inconclusive [activator, partial curve, poor fit] | –
Cc1ccc2nc(SCC(=O)c3ccccc3)nc(=O)n2c1 | inconclusive [activator, partial curve, poor fit] | –
COc1ccc(OCc2cc(C(=O)N3CCCC(CO)C3)no2)c2ccccc12 (stereo not drawn) | inconclusive [activator, partial curve, poor fit] | –

SMILES | Potency | activity change, positive = activation
COc1ccc(CNC(=O)c2cc(C3CC3)on2)cc1 | inconclusive [activator, partial curve, poor fit] | –
CCC(C)c1ccccc1NC(=S)Nc1cccnc1 (stereo not drawn) | inconclusive [activator, partial curve, poor fit] | –
Cc1ccc(NC(=S)Nc2ncccc2C)c(C)c1 | inconclusive [activator, partial curve, poor fit] | –
C=CCn1c(O)c(N=NC(=O)OC(C)(C)C)c2ccccc21 | inconclusive [activator, partial curve, poor fit] | –
Nc1cccc(C#Cc2ccc3c(=O)c4ccccc4oc3c2)c1 | inconclusive [activator, full curve, poor fit] | –
COc1ccc(-c2cc(C(F)(F)F)nc(-n3cc(Cl)cn3)n2)cc1 | – | inactive: 4.76%
CC(=O)Nc1ccc(N2C(=O)CC(Sc3nc4ccccc4s3)C2=O)cc1 (stereo not drawn) | inconclusive [activator, partial curve, poor fit] | –
COc1ccc(NC(=O)Nc2ccc3c(c2)OCO3)c(C)c1 | inconclusive [activator, partial curve] | –
O=C1CCCC/C1=C\Nc1ccccc1C(=O)O | inconclusive [activator, partial curve, poor fit] | –
Cc1ccc(NC(=O)c2cc(-c3cccs3)on2)cc1 | inconclusive [activator, partial curve, poor fit] | –
OC1CCN(c2cc(-c3ccccc3)nc3cc(-c4ccc(F)cc4)nn23)CC1 | – | inactive: -3.77%
CCOC(=O)C(C)On1c(-c2ccc(Cl)cc2)nc2ccc([N+](=O)[O-])cc21 (stereo not drawn) | inconclusive [activator, partial curve, poor fit] | –
COc1cccc(OCc2cc(C(=O)N(C)CCOc3ccc(C)cc3)no2)c1 | inconclusive [activator, single point] | –
COc1ccc(CCn2c(C)cc(C(=O)CCl)c2C)cc1OC | inconclusive [activator, single point] | –
COC(=O)[C@H](CC(C)C)NC(=O)Nc1ccc(F)cc1 | – | inactive: -2.07%
Cc1cc[n+]2cc(-c3cccc([N+](=O)[O-])c3)c(-c3cccc([N+](=O)[O-])c3)cc2c1 | inconclusive [activator, partial curve, poor fit] | –
Cc1ccc(CNC(=O)Nc2ccccc2)c(C)c1 | inconclusive [activator, full curve] | –
Cc1c(C(=O)Nc2cccnc2Cl)oc2ccccc12 | inconclusive [activator, full curve, poor fit] | –
Cc1cccc(NC(=O)c2ccc([N+](=O)[O-])s2)n1 | inconclusive [activator, partial curve, poor fit] | –
Oc1ccc(-c2nc(-c3ccc(O)c(O)c3)cs2)cc1 | inconclusive [activator, full curve, poor fit] | –
CC(=O)Nc1ccc2c(c1)ncn2C | – | inactive: -5.19%
CC(=O)Oc1ccc(/C=N/NC(=S)Nc2ccccc2)cc1 | inconclusive [activator, partial curve, poor fit] | –
CCOC(=O)c1c(C)[nH]c(C(=O)NNC(=O)c2ccccc2F)c1C | inconclusive [activator, partial curve, poor fit] | –

SMILES | Potency | activity change, positive = activation
COc1ccc(C(=O)COC(=O)CCc2ccccc2)cc1 | – | inactive: -1.88%
CC(C)(C)n1cnc2cc(NCc3ccc(Br)cc3)ccc21 | inconclusive [activator, full curve, poor fit] | –
CCc1nc2ccccc2c(C(=O)OCC(=O)NC2CC2)c1C | – | inactive: -7.08%
COc1ccc(-c2cc3nc(C)n(N)c(=O)c3s2)cc1 | – | inactive: -13.1%
C/C(=C\C(=O)c1ccccc1)Nc1ccc(O)cc1 | inconclusive [activator, partial curve, poor fit] | –
C=C(C)CNC(=S)N/N=C(\C)c1ccc(Cl)s1 | inconclusive [activator, single point] | –
Cc1ccc(-c2cc([C@H]3[C@@H]4C=CCC[C@@]4(C)C(=O)N3Cc3ccccc3)ccc2F)cc1 | inconclusive [activator, single point] | –
Nc1ccc(O)cc1C(=O)OCC(=O)c1ccc(C2CCCCC2)cc1 | inconclusive [activator, partial curve, poor fit] | –
Cc1ccc(C(=O)NCCc2ccncc2)cc1 | – | inactive: 8.36%
O=C(CC(Sc1ccc(Br)cc1)C(=O)O)c1ccc(F)cc1 (stereo not drawn) | – | inactive: 2.21%
Cc1ccc(NC(=O)CCCNC(=O)c2ccc(Cl)cc2)c(O)c1 | inconclusive [activator, partial curve, poor fit] | –
CC(=O)N1CC=CC1(CC(C)C)C(=O)NCCN1CCOCC1 (stereo not drawn) | inconclusive [activator, partial curve, poor fit] | –
Cc1ccc(C(=O)NN2C(=O)c3ccc(S(=O)(=O)c4ccc(C(=O)O)cc4)cc3C2=O)cc1 | inconclusive [activator, partial curve, poor fit] | –
COc1ccc(C(=O)Nc2ccccc2C(=O)Nc2cccnc2)cc1 | – | inactive: 11.3%
Cc1ccc(C(C)C)c(OCC(=O)NN=C(CCl)CCl)c1 | – | inactive: 4.35%
Cc1ccc(/C(N)=N/OC(=O)c2ccc(Cl)cc2Cl)cc1 | inconclusive [activator, partial curve, poor fit] | –
N/C(=N\OC(=O)c1ccoc1)c1ccc(Br)cc1 | inconclusive [activator, partial curve, poor fit] | –
O=C(c1cnccn1)N1CCN(C/C=C/c2ccccc2)CC1 | inconclusive [activator, single point] | –
CCOc1ccc(C(=O)NCC(=O)OCC(=O)Nc2cccc(S(=O)(=O)N3CCCC3)c2)cc1 | – | inactive: 0.443%
CNc1cc(CSc2ccc(Cl)cc2)nc(C)n1 | inconclusive [activator, partial curve, poor fit] | –
N#C/C(=C\c1ccc(N2CCOCC2)o1)C(=O)NC1CCCCC1 | – | inactive: 8.98%
COc1cc(-c2cc(C(=O)Nc3ccc(O)cc3)c3ccccc3n2)cc(OC)c1OC | – | inactive: -5.68%
